Laboratory results as given in PMC4336329 (PLoS ONE, 2015).
Hit rate of the full screen: of about 310,000 compounds, about 2,200 (0.71%) showed an effect of 50% or more. Effects have a minus sign here. This is one part of the list.

What follows are compounds tested against human ether-à-go-go-related gene (hERG) potassium channel (human, UniProt Q12809) (assay: primary screen, population patch clamp on CHO cells stably expressing hERG).
Chain of human ether-à-go-go-related gene (hERG) potassium channel (Q12809 whole entry, looked up): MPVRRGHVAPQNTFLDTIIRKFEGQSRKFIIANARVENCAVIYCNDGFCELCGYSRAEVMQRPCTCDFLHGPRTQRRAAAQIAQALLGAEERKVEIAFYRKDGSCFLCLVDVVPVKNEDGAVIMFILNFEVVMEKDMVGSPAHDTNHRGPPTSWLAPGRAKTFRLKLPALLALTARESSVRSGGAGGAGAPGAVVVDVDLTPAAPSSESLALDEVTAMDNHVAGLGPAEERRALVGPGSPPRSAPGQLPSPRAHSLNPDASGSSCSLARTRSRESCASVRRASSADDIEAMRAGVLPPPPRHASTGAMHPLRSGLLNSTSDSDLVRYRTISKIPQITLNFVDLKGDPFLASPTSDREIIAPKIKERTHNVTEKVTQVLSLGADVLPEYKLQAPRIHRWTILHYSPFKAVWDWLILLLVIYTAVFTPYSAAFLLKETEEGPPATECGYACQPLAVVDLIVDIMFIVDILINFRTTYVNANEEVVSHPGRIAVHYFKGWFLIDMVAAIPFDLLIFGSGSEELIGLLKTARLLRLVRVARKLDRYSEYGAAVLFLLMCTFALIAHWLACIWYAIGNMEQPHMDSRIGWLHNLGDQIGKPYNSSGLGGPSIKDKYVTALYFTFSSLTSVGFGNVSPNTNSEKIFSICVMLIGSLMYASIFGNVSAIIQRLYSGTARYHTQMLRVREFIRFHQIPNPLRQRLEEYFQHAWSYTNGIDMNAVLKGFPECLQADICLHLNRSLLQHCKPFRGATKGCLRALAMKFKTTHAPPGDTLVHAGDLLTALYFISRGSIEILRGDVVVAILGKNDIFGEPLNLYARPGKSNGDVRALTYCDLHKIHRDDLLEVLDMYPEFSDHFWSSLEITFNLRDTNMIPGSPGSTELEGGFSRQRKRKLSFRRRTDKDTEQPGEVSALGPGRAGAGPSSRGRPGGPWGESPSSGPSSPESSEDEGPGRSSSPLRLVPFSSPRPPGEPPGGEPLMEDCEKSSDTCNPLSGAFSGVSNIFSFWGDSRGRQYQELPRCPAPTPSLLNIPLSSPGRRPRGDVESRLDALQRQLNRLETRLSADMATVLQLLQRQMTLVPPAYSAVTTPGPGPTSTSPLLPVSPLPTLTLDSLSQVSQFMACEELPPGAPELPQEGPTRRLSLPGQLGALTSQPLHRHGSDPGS
With `Cc1ccc(-c2nnn(CC(=O)NCC3COCCO3)n2)o1` (stereo not drawn) the “hERG current change (%, negative = inhibition) at 1uM” value was 14.2%.
`CC1CCCC(NC(=O)COC(=O)Cc2ccccc2)C1C` (stereo not drawn) was tested, and the “hERG current change (%, negative = inhibition) at 1uM” value was -6.13%.
For `CCN1CCN(c2nc(Nc3cccc(C)c3)nc(N)c2[N+](=O)[O-])CC1`, the “hERG current change (%, negative = inhibition) at 1uM” value was -36.9%.
With `COc1cccc(C(=O)NC2(C(F)(F)F)N=C3SCCN3C2=O)c1` (stereo not drawn) the “hERG current change (%, negative = inhibition) at 1uM” value was 0.818%.
With `Cc1cccc(C(=O)Nc2sc3c(c2C#N)CCCCC3)c1` the “hERG current change (%, negative = inhibition) at 1uM” value was 10.1%.
`COc1ccccc1NC(=O)c1nn(-c2ccc(Cl)cc2)ccc1=O` was tested, and the “hERG current change (%, negative = inhibition) at 1uM” value was 0.496%.
`COC12NC(=O)N(C)C1(OC)C(=O)N(C)C(=O)N2C` (stereo not drawn) was tested, and the “hERG current change (%, negative = inhibition) at 1uM” value was 14.5%.
`COc1cccc(OC)c1C(=O)NC(=O)Nc1c(F)c(F)c(F)c(F)c1F` was tested, and the “hERG current change (%, negative = inhibition) at 1uM” value was 10.4%.
`O=C(O)CN1C(=O)Nc2ccc(Br)cc2C1c1ccccc1` (stereo not drawn) was tested, and the “hERG current change (%, negative = inhibition) at 1uM” value was 3%.
For `FC(F)(F)c1cccc(-c2nn[nH]n2)c1`, the “hERG current change (%, negative = inhibition) at 1uM” value was 6.08%.
For `O=S(=O)(Nc1ccncc1)c1ccccc1`, the “hERG current change (%, negative = inhibition) at 1uM” value was 17.4%.
For `O=C(O)CC1(CC(=O)Nc2ccc3c(c2)C(=O)OC3)CCCCC1`, the “hERG current change (%, negative = inhibition) at 1uM” value was 10.7%.
With `CC(C(=O)Nc1nc2ccccc2[nH]1)N1C(=O)C2CC=CCC2C1=O` (stereo not drawn) the “hERG current change (%, negative = inhibition) at 1uM” value was 12.1%.
In the case of `CCCCC(=O)Nc1nnc(S(=O)(=O)N(C)Cc2ccco2)s1`, the “hERG current change (%, negative = inhibition) at 1uM” value is reported as 12.6%.
For `CN(C)c1cc[n+](CC(=O)Nc2ccc(Cl)cc2)cc1.[Cl-]`, the “hERG current change (%, negative = inhibition) at 1uM” value was 15.9%.
In the case of `Cl.NCCSC1CC(=O)N(c2ccc(F)cc2)C1=O` (stereo not drawn), the “hERG current change (%, negative = inhibition) at 1uM” value is reported as 18.5%.
With `CC(C)CC(c1nnnn1Cc1ccc2c(c1)OCO2)N1CCC(C(N)=O)CC1` (stereo not drawn) the “hERG current change (%, negative = inhibition) at 1uM” value was 14.5%.
In the case of `CCCn1c(N)c(N(CCOC)C(=O)c2cccc(C(F)(F)F)c2)c(=O)[nH]c1=O`, the “hERG current change (%, negative = inhibition) at 1uM” value is reported as 13.8%.
With `O=C(CC(=O)NN=C1CCCCCC1)NCc1cccnc1` the “hERG current change (%, negative = inhibition) at 1uM” value was 8.13%.
`CC(C)CNC(=S)N(CCCO)Cc1cc2cc3c(cc2[nH]c1=O)OCO3` was tested, and the “hERG current change (%, negative = inhibition) at 1uM” value was 7.57%.
With `COc1ccc(NC(=S)NC(NC(=O)CF)C(Cl)(Cl)Cl)cc1[N+](=O)[O-]` (stereo not drawn) the “hERG current change (%, negative = inhibition) at 1uM” value was 6.83%.
For `COc1ccc(Oc2nc(C)cc(C)c2S(C)(=O)=O)cc1`, the “hERG current change (%, negative = inhibition) at 1uM” value was 7.92%.
For `CCn1ccc(C(=O)N2CCN(c3ncccn3)CC2)n1`, the “hERG current change (%, negative = inhibition) at 1uM” value was 7.97%.
For `CCc1n[nH]c(=S)n1/N=C/c1c[nH]c2ccc(Br)cc12`, the “hERG current change (%, negative = inhibition) at 1uM” value was 8.23%.
`CCOC(=O)C1(CC2CC2)CCN(Cc2cn(C)c3ccccc23)CC1` was tested, and the “hERG current change (%, negative = inhibition) at 1uM” value was 12.2%.
`Cc1nc(C(=O)Nc2cccc(Cl)c2Cl)nn1-c1cc(OC(C)C)c(Cl)cc1Cl` was tested, and the “hERG current change (%, negative = inhibition) at 1uM” value was 17.5%.
With `O=C(Nc1cccc(NC(=O)c2cccc(F)c2)n1)c1cccc(F)c1` the “hERG current change (%, negative = inhibition) at 1uM” value was 7.29%.
For `Cc1ccc(OCC(=O)N(Cc2ccc(N(C)C)cc2)C2CCS(=O)(=O)C2)cc1C` (stereo not drawn), the “hERG current change (%, negative = inhibition) at 1uM” value was 0.619%.
In the case of `COc1ccc(-c2nc3ccccc3o2)cc1NC(=O)c1ccc(Br)o1`, the “hERG current change (%, negative = inhibition) at 1uM” value is reported as 10.3%.
`Cc1onc(-c2ccccc2)c1C(=O)NCCN1CCOCC1` was tested, and the “hERG current change (%, negative = inhibition) at 1uM” value was 15.6%.
`COc1cccc(-c2nnc(NC(=O)c3ccc(S(=O)(=O)N4CC(C)OC(C)C4)cc3)o2)c1` (stereo not drawn) was tested, and the “hERG current change (%, negative = inhibition) at 1uM” value was 3.65%.
In the case of `Cc1ccc(NC(=S)NCC(O)c2ccccc2)c(C)c1` (stereo not drawn), the “hERG current change (%, negative = inhibition) at 1uM” value is reported as 17.6%.
For `O=C(N/N=C/c1ccc[nH]1)c1cccnc1`, the “hERG current change (%, negative = inhibition) at 1uM” value was 13.1%.
For `CCOc1ccc(N2C(=O)Nc3ccccc3C2(O)C(=O)NCc2ccccc2)cc1` (stereo not drawn), the “hERG current change (%, negative = inhibition) at 1uM” value was 14.4%.
With `COc1cccc(-c2cc(C(F)(F)F)n3nc(C(=O)N4CCC5(CC4)OCCO5)cc3n2)c1` the “hERG current change (%, negative = inhibition) at 1uM” value was 1.68%.
With `CCOC(=O)c1c(-c2ccc(C)cc2)csc1/N=C(\C)C1=C(O)c2ccccc2C1=O` the “hERG current change (%, negative = inhibition) at 1uM” value was 13.2%.
With `COC(=O)CCN(c1ccccc1)S(=O)(=O)c1cc(-c2cc(C)no2)ccc1C` the “hERG current change (%, negative = inhibition) at 1uM” value was 3.76%.
With `CN(C)/C=N/C(=S)Nc1ccccc1F` the “hERG current change (%, negative = inhibition) at 1uM” value was 1.45%.
With `O=C(CCC(=O)OCc1cccc(C(=O)Oc2ccccc2)c1)Nc1cccc2ccccc12` the “hERG current change (%, negative = inhibition) at 1uM” value was 11.8%.
For `O=C(COC(=O)Cc1ccc(F)cc1)NCc1ccco1`, the “hERG current change (%, negative = inhibition) at 1uM” value was 6.18%.
For `Cc1cccc2cc(C#N)c(SCC(=O)Nc3ccccc3N3CCOCC3)nc12`, the “hERG current change (%, negative = inhibition) at 1uM” value was 13.6%.
In the case of `O=C1CCN(C(=O)CSc2ccc(Cl)cc2)N1`, the “hERG current change (%, negative = inhibition) at 1uM” value is reported as 6.99%.
`NC(=S)NNc1c(F)c(F)c(F)c(F)c1F` was tested, and the “hERG current change (%, negative = inhibition) at 1uM” value was 13.8%.
`Cc1sc2nc(NCCO)[nH]c(=O)c2c1C` was tested, and the “hERG current change (%, negative = inhibition) at 1uM” value was 14.6%.
With `CC(C)(C#N)c1cc(Cn2cncn2)cc(C(C)(C)C#N)c1` the “hERG current change (%, negative = inhibition) at 1uM” value was -1.17%.
For `CCn1c(CNC(=O)c2ccc3c(c2)OCO3)nnc1SCC(=O)Nc1cc(C)ccc1OC`, the “hERG current change (%, negative = inhibition) at 1uM” value was 6.1%.
With `O=C(c1cccnc1)c1ncc(C(F)(F)F)cc1Cl` the “hERG current change (%, negative = inhibition) at 1uM” value was 1.12%.
`CC(C)CC(=O)N1CCN(Cc2cccc([N+](=O)[O-])c2)CC1` was tested, and the “hERG current change (%, negative = inhibition) at 1uM” value was 7.83%.
`O=C(COC(=O)c1cc(=O)[nH]c2ccccc12)NCc1ccc(F)cc1` was tested, and the “hERG current change (%, negative = inhibition) at 1uM” value was -3.48%.
`CN(C)CCCn1c2c(c(SCC(=O)Nc3cccc4ccccc34)nc1=O)CCC2` was tested, and the “hERG current change (%, negative = inhibition) at 1uM” value was 4.92%.
`COc1ccc(CNC(=O)CNC(=O)c2ccc(Br)o2)cc1OC` was tested, and the “hERG current change (%, negative = inhibition) at 1uM” value was 18.1%.
`O=c1cccccc1NN=C1CCCCCC1` was tested, and the “hERG current change (%, negative = inhibition) at 1uM” value was 14.1%.
For `COCCCN1C(=O)C(O)=C(C(=O)c2ccco2)C1c1ccc(Br)cc1` (stereo not drawn), the “hERG current change (%, negative = inhibition) at 1uM” value was -5.22%.
For `CCCC[n+]1ccn(-c2nc3ccccc3nc2[N-]S(=O)(=O)c2ccccc2)c1`, the “hERG current change (%, negative = inhibition) at 1uM” value was 3.47%.
For `CCC1(C(=O)c2ccccc2)C2c3cc(Br)ccc3OC(=O)C21C(=O)N1CCOCC1` (stereo not drawn), the “hERG current change (%, negative = inhibition) at 1uM” value was 6.68%.
In the case of `C#CCOCCOCCOCCNc1nc(N2CCN(C(=O)C(Cc3ccc(O)cc3)n3cc(C(N)C(C)CC)nn3)CC2)nc(N2CCN(C(=O)C(Cc3ccc(O)cc3)n3cc(C(N)C(C)CC)nn3)CC2)n1.Cl` (stereo not drawn), the “hERG current change (%, negative = inhibition) at 1uM” value is reported as -16.9%.
In the case of `COc1ccc2sc(NCc3ccccc3)nc2c1`, the “hERG current change (%, negative = inhibition) at 1uM” value is reported as 17.2%.
